Patent publication US20170029494A1 (GlaxoSmithKline, published 2017)
“And” between values parts separate entries of the source, which are not always exact repeats. Equal entries are not always repeated. One block for each binder: values may come before it.

Key:
human VEGF165 [1] = molecular target: T1, human VEGF165 (human, UniProt P15692 27-191); assay: MSD RBA, VEGF binding to coated VEGFR1, no pre-incubation
T1 construct: mature; Two sources were used (GSK in-house HEK293); also called hVEGF165; rhVEGF165
T1 sequence (looked up): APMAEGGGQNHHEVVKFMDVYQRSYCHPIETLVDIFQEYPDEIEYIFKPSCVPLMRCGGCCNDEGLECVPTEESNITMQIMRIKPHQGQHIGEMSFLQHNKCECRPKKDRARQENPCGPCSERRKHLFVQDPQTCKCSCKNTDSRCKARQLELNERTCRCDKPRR

human VEGF165 [2] = molecular target: T1, human VEGF165; assay: cell-based or functional assay
human VEGF165 [3] = molecular target: T1, human VEGF165; assay: MSD RBA, VEGF binding to coated VEGFR2, no pre-incubation
human VEGF165 [4] = molecular target: T1, human VEGF165; assay: SPR Biacore T100, Protein A capture, VEGF165 analyte, 37 C, 1:1 model
human VEGF165 [5] = molecular target: T1, human VEGF165; assay: SPR Biacore T100, Protein A capture, VEGF165 analyte, 37 C, 1:1 model (biphasic curves)
human VEGF165 [6] = molecular target: T1, human VEGF165; assay: SPR Biacore T100, Protein A capture, VEGF165 analyte, 37 C, 1:1 model (kd: Too tight; fit not ideal)
human VEGF165 [7] = molecular target: T1, human VEGF165; assay: MSD RBA, VEGF binding to coated VEGFR2, no pre-incubation; remark: listed apart in the source
human VEGF165 [8] = molecular target: T1, human VEGF165; assay: ITC, VEGF165 titrated into construct, 25 C, 1:1 model
human VEGF165 [9] = molecular target: T1, human VEGF165; assay: MSD RBA, VEGF binding to coated VEGFR2 (second set)
human VEGF165 [10] = molecular target: T1, human VEGF165; assay: SPR Biacore T100, Protein A capture, VEGF165 analyte, 37 C, 1:1 model; remark: listed apart in the source
human VEGF165 [11] = molecular target: T1, human VEGF165; assay: SPR Biacore T100, Protein A capture, VEGF165 analyte, 37 C, 1:1 model (kd: At the limit of measurement)
human VEGF165 [12] = molecular target: T1, human VEGF165; assay: SPR Biacore T100, Protein A capture, VEGF165 analyte, 37 C, 1:1 model (off-rate near limit of measurement)
human VEGF165 [13] = molecular target: T1, human VEGF165; assay: SPR Biacore T100, Protein A capture, VEGF165 analyte, 37 C, 1:1 model; remark: listed apart in the source
human VEGF165 [14] = molecular target: T1, human VEGF165; assay: SPR Biacore T100, Protein A capture, VEGF165 analyte, 37 C, 1:1 model (Kd, KD: Out of the range)

EC50 (human VEGF165 [7]): 0.00323 µg/mL and 0.031 nM
Ka (human VEGF165 [8]): 3.78e+07 M⁻¹
N (VEGF165 (monomer)/antibody) (human VEGF165 [8]): 2.1
ΔH (human VEGF165 [8]): -19.3 kcal/mol
ΔS (human VEGF165 [8]): -29.9 cal/mol/deg
EC50 (human VEGF165 [9]): 0.0052 µg/mL and 0.052 nM
Max. % Inhibition (human VEGF165 [9]): 74.7%
Kd (human VEGF165 [10]): 6.85 pM
koff (human VEGF165 [10]): 9.13e-05 s⁻¹
kon (human VEGF165 [10]): 1.33e+07 M⁻¹ s⁻¹
B3: DMS30023 (DT02-K-044-085-HingeIgG1Linker-Fc-GS(TVAAPSGS)x3 Linker-DT02-K-044-085 dAb-Fc-dAb) (Fc fusion)
chain: DIQMTQSPSSLSASVGDRVTITCRASQWIGPELKWYQQKPGKAPKLLIYHGSILQSGVPSRFSGSGSGTDFTLTISSLQPEDFATYYCQQYMYYPHTFGQGTKVEIKRV[human IgG1 Fc with changes not shown]GSTVAAPSGSTVAAPSGSTVAAPSGSDIQMTQSPSSLSASVGDRVTITCRASQWIGPELKWYQQKPGKAPKLLIYHGSILQSGVPSRFSGSGSGTDFTLTISSLQPEDFATYYCQQYMYYPHTFGQGTKVEIKR
notes: dimer; also called DMS30023ITC; DMS30023 (CR290911)

Kd (human VEGF165 [12]): 1.59 pM
koff (human VEGF165 [12]): 1.29e-05 s⁻¹
kon (human VEGF165 [13]): 8.12e+06 M⁻¹ s⁻¹
kon (human VEGF165 [14]): 8.49e+06 M⁻¹ s⁻¹
kon (human VEGF165 [11]): 7.72e+06 M⁻¹ s⁻¹
B5: DMS30026 (C-terminal Fc fusion of K-044-085 dAb ((TGLDSP)x4)) (Fc fusion)
chain: [human IgG1 Fc not shown]TGLDSPTGLDSPTGLDSPTGLDSPDIQMTQSPSSLSASVGDRVTITCRASQWIGPELKWYQQKPGKAPKLLIYHGSILQSGVPSRFSGSGSGTDFTLTISSLQPEDFATYYCQQYMYYPHTFGQGTKVEIKR
notes: dimer; also called C085 Fibrx4; C085 Fibr4

Further lines, the binder ahead of its results:

B1: DMS30004 (C-terminal Fc fusion of K-044-255 dAb, GS(TVAAPSGS)x3 Linker, Fc-dAb) (Fc fusion)
chain: [human IgG1 Fc and a few adjoining residues not shown]GSTVAAPSGSTVAAPSGSTVAAPSGSDIQMTQSPSSLSASVGDRVTITCRASQWIGPELKWYQQKPGKAPKLLIYHGSILQSGVPSRFSGSGSGTDFTLTISSLQPEDFATYYCQQYMYYPKTFGQGTKVEIKR
notes: Vk Fc-dAb; dimer
EC50 (human VEGF165 [1]): 0.0038 µg/mL and 0.051 nM
Max. % Inhibition (human VEGF165 [1]): 87.1%
HUVEC proliferation, maximal inhibition (human VEGF165 [2]): ~100%
EC50 (human VEGF165 [3]): 0.00312 µg/mL and 0.042 nM
Max. % Inhibition (human VEGF165 [3]): 91%
Kd (human VEGF165 [4]): 4 pM

B2: N085 TVAAPS (N-terminal Fc fusion of K-044-085 dAb (TVAAPS)) (Fc fusion)
chain: DIQMTQSPSSLSASVGDRVTITCRASQWIGPELKWYQQKPGKAPKLLIYHGSILQSGVPSRFSGSGSGTDFTLTISSLQPEDFATYYCQQYMYYPHTFGQGTKVEIKRTVAA[human IgG1 Fc and a few adjoining residues not shown]
notes: Vk dAb-Fc; dimer; also called 1xTVAAPS
Kd (human VEGF165 [5]): 7.86 pM
koff (human VEGF165 [5]): 9.08e-05 s⁻¹
kon (human VEGF165 [5]): 1.16e+07 M⁻¹ s⁻¹
kon (human VEGF165 [6]): 8.07e+06 M⁻¹ s⁻¹

B4: DMS30014 (C-terminal Fc fusion of K-044-085 dAb, Albumin Domain 3 Linker, Fc-dAb) (Fc fusion)
chain: [human IgG1 Fc not shown]EVDETYVPKEFNAETFTFHADDIQMTQSPSSLSASVGDRVTITCRASQWIGPELKWYQQKPGKAPKLLIYHGSILQSGVPSRFSGSGSGTDFTLTISSLQPEDFATYYCQQYMYYPHTFGQGTKVEIKR
notes: Vk Fc-dAb, Fc starts THT; dimer
kon (human VEGF165 [11]): 8.68e+06 M⁻¹ s⁻¹
